The whole screen tested about 150,000 compounds, of which about 540 (0.36%) showed an effect of 50% or more. Some of the results follow.
test system: Plasmodium falciparum; assay: Primary screen in NF54 nanoGlo assay, in single point, at 2uM, 72h; a lower Z score goes with more inhibition; assay type: functional, Erythrocyte; details: timepoint 72 hour

Row | Structure (SMILES) | % Inhibition | Z score
1 | Cc1cc(-c2ccc(C(=O)N(C)CC3(CO)CCC3)cc2)cc(C)c1O | -9% | 1.2
2 | CC1(C)C(=O)NC(=O)N1C(=O)c1ccccc1 | 7% | -1.06
3 | CC(=O)c1c(C)nn([C@@H](C)Cc2nc(-c3cccnn3)no2)c1C | -11% | 1.53
4 | Cc1nc(N2CCC(NCCc3cccnc3)CC2)c2ccsc2n1 | -13% | 1.41
5 | OCc1ccc(Oc2cc(F)c(CN3CCCC3)c(Cl)c2)cc1 | 6% | -1.21
6 | CCN(CC)S(=O)(=O)c1ccccc1N | 5% | -0.73
7 | CCOC(=O)c1nc(NCC2CCN(Cc3ccccc3F)CC2)c2ccccc2n1 | -6% | 1.09
8 | CCOc1cc(C(=O)N2CCn3cccc3[C@@H]2CC)n[nH]1 | -3% | 0.45
9 | CCN=C(NCc1noc(C)n1)NCc1ccccc1OC(C)(C)C | -6% | 0.55
10 | [O-][n+]1cc(O)c(CN2CCOCC2)c2ccccc21 | -2% | 0.32
11 | C[C@H](NCc1ccc(Cn2ccnc2)cc1)c1cc(Cl)cc(Cl)c1 | -4% | 0.66
12 | CCOc1ccnc(NCC[C@H]2CCCN(C)C2)n1 | -1% | 0.12
13 | CCc1cnc(CN(C)c2nc(C)cc(C)c2C#N)s1 | -8% | 1.66
14 | O=C(O)c1ccc(C(=O)N(CCC(F)(F)F)C2CCC2)cn1 | -3% | 0.32
15 | Cc1ccc(-c2c3c(=O)n(C)c(=O)n(C)c3c3n2-c2ccccc2O[C@@H]3c2ccccc2O)cc1 | 6% | -0.85
16 | CC(=O)c1cc(C(=O)N2CCC(C)CC2c2ccco2)ccc1C (stereo not drawn) | -26% | 2.73
17 | O=C(O)c1ccccc1-c1cc(O)cc(CC[C@H]2CCCCN2)c1 | -15% | 2.8
18 | COc1cc(C)c2[nH]c3c(c(=O)c2c1)CN(CC(=O)Nc1cccc(C)c1)CC3 | 7% | -1.07
19 | O=C(Cc1cc(-c2ccccc2)on1)N1CCc2ccccc2C1 | -8% | 1.03
20 | Cc1cc(C)cc(C(=O)N(CCC(=O)N2CCNCC2)Cc2ccc(F)cc2)c1 | -9% | 1.24
21 | CC1(C2CCCCC2)NC(=O)N(CC(O)COc2ccccc2)C1=O (stereo not drawn) | -7% | 0.62
22 | CC1CCCC(NC(=O)C2(C)Cn3c(nc4ccccc43)C(=O)N2Cc2cccc(Cl)c2)C1C (stereo not drawn) | 11% | -1.04
23 | CC(C)(C)CNC(=O)C(C)(C)NC(=O)Nc1ccc(F)cc1F | -16% | 1.55
24 | Brc1cc2c(cc1CN1CCN(c3ncccn3)CC1)OCCO2 | -8% | 1.01

From ChEMBL document CHEMBL4888484, “Replenishing the malaria drug discovery pipeline: Screening and hit evaluation of the MMV Hit Generation Library 1 (HGL1) against asexual blood stage Plasmodium falciparum ,using a nano luciferase reporter read-out” (2022)
